PubChem BioAssay (NCATS)
Several values for one entry are separate records, joined by “and”; a condition that tells them apart may be missing. Identical values can stand only once. Inconclusive means that the source gave no clear call. Such entries were picked first, then a sample of the others. For part of these data: Potencies of inconclusive entries are doubtful fits and often do not repeat. Activity calls are given as the source filed them. Calls follow the shape of the dose curve; as a rule, active = well fitted curve in either direction with a large enough effect (not every such curve was filed as active); inconclusive = small, poorly fitted or top-dose-only effect, or another doubt; inactive = flat fitted curve, though single readings scatter.

test system: not listed separately; assay: NFAT Signaling Pathway (AID 444); settings: Jurkat NFAT-bla M1, carbachol, beta-lactamase ratio, 5 h; at 17.2 µM (top of the series) unless noted;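 also: carbachol stimulus at about its EC50 of 1 µM final; % is scaled to controls: 0 for no effect and ±100 for the full control effect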
Outline: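 Jurkat cells with NFAT-driven β-lactamase reporter and co-expressed M1 receptor, stimulated with carbachol (final 1 uM, ~EC50), compound titration, 5 h at 37 °C. CCF4 loaded 1 h at RT; 460/530 nm ratio gave %activity and AC50.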
Tags tell the direction and shape of the fitted curve.

Activity change, negative = inhibition, inconclusive:
COc1ccc(CCn2c(C)cc3c(c2=O)C(c2ccc4c(c2)OCO4)C(C#N)=C(N)O3)cc1OC (stereo not drawn) 2.92% [inhibitor], Cc1cccc(C)c1OCC(=O)Nc1cccc(-c2nnc(-c3ccccc3)o2)c1 -92.9% [inhibitor], Cc1ccc2[nH]c3c(c2c1)CN(C(=O)CN1CCCc2ccccc21)CC3 -59% [inhibitor], O=C(O)CCc1cc(I)c(Oc2ccc(O)c(I)c2)c(I)c1 -58% [inhibitor]

test system: not listed separately; assay: Stat Signaling Pathway (AID 446); settings: ME-180 SIE beta-lactamase reporter, IL-6 stimulated, 5 h; at 7.69 µM (top of the series) unless noted;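 also: ME-180 cervical cancer cells given 40 pM IL-6 alongside compound; SIE-controlled beta-lactamase reporter measured as 460/530 nm FRET emission ratio; top concentration of the series differs between compounds; % is scaled to controls: 0 for no effect and ±100 for the full control effect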
Outline: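 Screening format detects activators and inhibitors alike: ME-180 SIE-bla cells stimulated at 40 pM IL-6 for 5 hrs with compound, then dual-emission beta-lactamase read at 405 nm excitation.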

activity, negative = inhibition, inactive:
CCSC1=C(C#N)C(c2cccs2)C(C(=O)OC)=C(C)N1 (stereo not drawn) -15.6% [at 17.2 µM], O=C(O)c1cc2cccc(S(=O)(=O)N3CCOCC3)c2cc1O 6.34% [at 17.2 µM], COc1ccc(C2C=C(c3ccc(Cl)cc3)Nc3nc(NC(C)=O)nn32)cc1 (stereo not drawn) -9.52% [at 17.2 µM], CC(=O)N1CCC2(CC1)CN(c1ccncc1)C2 0.403%, O=c1c(-c2ccc(Cl)cc2)nc2cncnc2n1Cc1ccc(F)cc1 -2.95%, CC(=O)N1CCC2(CC1)CN(c1ccccc1)C2 10.3%, CN(C)/N=N\c1nc[nH]c1C(N)=O 5.82% [at 17.2 µM], Cc1ccc(Cn2ncc3c(N4CCOCC4)ncnc32)cc1 3.94% [at 17.2 µM], CC[C@]1(O)C[C@H]2CN(CCc3c([nH]c4ccccc34)[C@](C(=O)OC)(c3cc4c(cc3OC)N(C=O)[C@H]3[C@@](O)(C(=O)OC)[C@H](OC(C)=O)[C@@]5(CC)C=CCN6CC[C@]43[C@H]65)C2)C1 -14.3% [at 38 µM]

activity, negative = inhibition, inconclusive:
Nc1ncn([C@H]2O[C@@H](CO)[C@@H](O)[C@@H]2O)c(=O)n1 -33.6% [inhibitor] [at 17.2 µM], Cn1c(NCC(O)c2ccccc2)nc2c1c(=O)n(Cc1ccc(Cl)c(Cl)c1)c(=O)n2C (stereo not drawn) -36.6% [inhibitor] [at 17.2 µM], CCNc1ncc2nc(-c3cccs3)c(=O)n(Cc3ccc(F)cc3)c2n1 75.7% [activator], CCCC[S@@](=N)(=O)CC[C@@H](N)C(=O)O -13.3% [inhibitor] [at 38 µM] and 106% [activator] [at 38 µM], COc1ccccc1-c1nn2c(-c3ccc(C(C)(C)C)cc3)nnc2s1 61.8% [activator] [at 17.2 µM], c1ccc2c(c1)[nH]c1c(N3CCC4(CC3)OCCO4)ncnc12 -37.7% [inhibitor] [at 17.2 µM], COc1cccc(-c2ccc3ncnc(NCc4cccnc4)c3c2)c1 -33% [inhibitor], CCOC(=O)CSc1nc(N)c(C(=O)Nc2ccc(N(C)C)cc2)s1 -37% [inhibitor] [at 17.2 µM], NC(=O)NCCS[C@H]1CCCC[C@@H]1O 39.7% [activator], CC(=Nc1cccc(O)c1)c1sc2ccccc2c1O -40% [inhibitor] [at 17.2 µM], CN(Cc1ccccc1)c1ncnc2ccc(Br)cc12 -32.5% [inhibitor] [at 17.2 µM], CN(C)CCCn1c2c3ccccc3ccc2c2oc(=O)c3ccccc3c21 74% [activator], COc1cccc(Cn2c(=O)c(-c3cccs3)nc3cnc(OC)nc32)c1 79.1% [activator], Cc1cccc(CNc2ncnc3ccc(-c4cccnc4)cc23)c1 -35.2% [inhibitor], COc1ccc(Oc2ncc3nc(-c4cccs4)c(=O)n(Cc4cccc(OC)c4)c3n2)cc1 54.6% [activator], C[C@@]1(CO)[C@H](O)CC[C@]2(C)[C@@H]1CC[C@H]1C[C@H]3C[C@]12CC[C@]3(O)COC(=O)CN 10.5% [inhibitor]

molecular target: Mitogen-activated protein kinase 10 (Mus musculus) (UniProt Q61831); assay: JNK3 AlphaScreen Assay (AID 530); settings: JNK3 lysate, c-Jun phosphorylation; activity change, negative = inhibition: at 57.1 µM (top of the series);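 also: kinase came from lysate of stimulated human HepG2 cells; signal reports phosphorylation of biotinylated GST-cJun 1-79 at Ser73 with 10 µM ATP; potency is read from the fitted curve at half-maximal effect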
Outline: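 Pre-activated (IL-1β/TNFα) JNK3 in HepG2 lysates phosphorylates biotin-GST-cJun(1-79), 10 uM ATP; anti-phospho-cJun(Ser73) AlphaScreen read at room temperature, pH 7.6 Tris buffer. Compounds pre-incubated 15 min as titrations.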

Potency, inconclusive:
CCNc1ncc2nc(-c3cccs3)c(=O)n(Cc3ccc(F)cc3)c2n1 31.6 µM [activator, single point], COc1cccc(Cn2c(=O)c(-c3cccs3)nc3cnc(OC)nc32)c1 6.31 µM [activator, partial curve], COc1ccc(Oc2ncc3nc(-c4cccs4)c(=O)n(Cc4cccc(OC)c4)c3n2)cc1 10 µM [activator, partial curve], CC[C@]1(O)C[C@H]2CN(CCc3c([nH]c4ccccc34)[C@](C(=O)OC)(c3cc4c(cc3OC)N(C=O)[C@H]3[C@@](O)(C(=O)OC)[C@H](OC(C)=O)[C@@]5(CC)C=CCN6CC[C@]43[C@H]65)C2)C1 0.0251 µM [activator, full curve, poor fit]
